Values marked as one replicate rest on one cluster of the flow cell; about a third of the high ones do not repeat.
Tested on: ATP
Assay: switch fluorescence ratio, 500 uM ATP over buffer (Cy3 cluster intensity, sum of 5 cycles each) (fold (ratio)); higher = stronger signal-on switching upon ATP binding; sequences stand for … in TCGTCGGCAGCGTCAGATGTGTATAAGAGACAGTTTTTTTTTTTTTTTTTTTTTTTTT…TC
Details: aptamer strand: ATP DNA aptamer (quencher-CACCTGGGGGAGTATTGCGGAGGAAGG + anchor), 100 nM annealed; ATP concentration: 500 uM; one replicate
In short: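 Values give the fluorescence ratio for each switch-domain sequence, averaged from per-cluster ratios of summed target-cycle to summed buffer-cycle Cy3 intensity. The Cy3-labelled switching-strand clusters sat on a modified Illumina MiSeq flow-cell, were annealed to 100 nM quencher-labelled ATP aptamer, and were imaged in selection buffer, then after 15 min with 500 uM ATP at 22 °C. Five cycles ran with NaOH stripping and re-annealing between them, and clusters outside 100-1000 RFU were excluded.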
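Further: ATP exposure 15 min at 22 °C before imaging.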

| Sequence | switch fluorescence ratio |
| --- | --- |
| CAGGTGCCCT | 1.27 |
| CAGTAAATCA | 0.979 |
| CAGTAACGTC | 1.06 |
| CAGTAAGGCC | 0.992 |
| CAGTACACTG | 1.09 |
| CAGTACCCTG | 1.02 |
| CAGTAGAACT | 1.02 |
| CAGTAGGATA | 1.01 |
| CAGTAGGCAC | 0.978 |
| CAGTATATTA | 1 |
| CAGTATGCAA | 1.23 |
| CAGTATGGTC | 0.97 |
| CAGTCAATGT | 1.05 |
| CAGTCATTCT | 1.01 |
| CAGTCCCGGA | 1.02 |
| CAGTCCGGT | 1.04 |
| CAGTCGATTT | 0.975 |
| CAGTCGTTGA | 1.03 |
| CAGTCTTGTA | 1.01 |
| CAGTGAAGGG | 1.01 |
| CAGTGAATCG | 0.991 |
| CAGTGATTAG | 0.973 |
| CAGTGCCGCA | 1.1 |
| CAGTGCGATT | 0.983 |
| CAGTGCGGAC | 1.03 |

| Sequence | switch fluorescence ratio |
| --- | --- |
| CAGTGCTACG | 0.994 |
| CAGTGGACAA | 1.04 |
| CAGTGGAGTC | 0.999 |
| CAGTGGCGAC | 0.972 |
| CAGTGTAG | 1.01 |
| CAGTGTCCGT | 0.979 |
| CAGTGTCTGG | 0.996 |
| CAGTGTGAGA | 1.05 |
| CAGTGTTCTT | 0.994 |
| CAGTTAAGGC | 0.886 |
| CAGTTACAAA | 1.04 |
| CAGTTATGAG | 0.988 |
| CAGTTCAACA | 1.02 |
| CAGTTGAAGA | 0.995 |
| CAGTTGCAGG | 1 |
| CAGTTGCGGA | 0.993 |
| CAGTTTTGTT | 0.992 |
| CATAAAAGGT | 0.99 |
| CATAAAATGT | 0.982 |
| CATAAACCTG | 1.13 |
| CATAAAGCGA | 3.05 |
| CATAAGGATT | 0.976 |
| CATAATAGTG | 1.01 |
| CATACATCAT | 1.01 |
| CATACGGCAA | 1.23 |

| Sequence | switch fluorescence ratio |
| --- | --- |
| CATACTCGTA | 0.983 |
| CATACTTAAA | 1.03 |
| CATAGAGGGC | 0.948 |
| CATAGCTGGG | 0.988 |
| CATAGGCAGC | 1.06 |
| CATAGGCCCA | 0.998 |
| CATAGGGCT | 1.01 |
| CATAGGTTCG | 0.996 |
| CATATAAATT | 0.984 |
| CATATAACAA | 1.02 |
| CATATAGACT | 0.98 |
| CATATATCTC | 1.01 |
| CATATATGGC | 0.951 |
| CATATCCAAC | 1.05 |
| CATATCCCGG | 1.01 |
| CATATCGGTC | 0.946 |
| CATATGATCA | 1.03 |
| CATATGCGCG | 1.02 |
| CATATGCTCT | 0.987 |
| CATATGGG | 0.965 |
| CATATTAACT | 0.995 |
| CATATTTTGC | 1.02 |
| CATCAAAAG | 0.97 |
| CATCAAAGAA | 1.01 |
| CATCAACAGG | 1.15 |

| Sequence | switch fluorescence ratio |
| --- | --- |
| CATCAATGAA | 0.992 |
| CATCACCTTT | 0.98 |
| CATCAGGCCT | 1.01 |
| CATCAGTAA | 1.38 |
| CATCCACGGG | 1.21 |
| CATCCAGATT | 1.01 |
| CATCCATGCA | 1.33 |
| CATCCCACTC | 2.2 |
| CATCCGAGTG | 1.53 |
| CATCCTTTGC | 1.22 |
| CATCGACTCT | 1 |
| CATCGAGTAG | 0.995 |
| CATCGATTTA | 0.976 |
| CATCGCTATT | 1.04 |
| CATCGGCGAC | 3.09 |
| CATCGGCTCC | 1.41 |
| CATCGGTACC | 1.02 |
| CATCGTACAG | 1.04 |
| CATCTAAGGT | 0.985 |
| CATCTGTCTG | 1.01 |
| CATCTTAAGG | 1.05 |
| CATCTTCACC | 0.995 |
| CATGAATGT | 1.03 |
| CATGACACGT | 1.01 |
| CATGAGACCT | 1.39 |
